# Laboratory results as given in PMC4336329 (PLoS ONE, 2015).
# Among all 310,000 compounds or so, about 14,000 (4.5%) showed an effect of 50% or more. Effects have a minus sign here. Some of the results follow.
# Target: human ether-à-go-go-related gene (hERG) potassium channel (human, UniProt Q12809)
# Test: primary screen, population patch clamp on CHO cells stably expressing hERG
# 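Also: peak tail current of the secondary pulse compared with the same well before compound.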
# human ether-à-go-go-related gene (hERG) potassium channel, sequence (Q12809 whole entry, looked up): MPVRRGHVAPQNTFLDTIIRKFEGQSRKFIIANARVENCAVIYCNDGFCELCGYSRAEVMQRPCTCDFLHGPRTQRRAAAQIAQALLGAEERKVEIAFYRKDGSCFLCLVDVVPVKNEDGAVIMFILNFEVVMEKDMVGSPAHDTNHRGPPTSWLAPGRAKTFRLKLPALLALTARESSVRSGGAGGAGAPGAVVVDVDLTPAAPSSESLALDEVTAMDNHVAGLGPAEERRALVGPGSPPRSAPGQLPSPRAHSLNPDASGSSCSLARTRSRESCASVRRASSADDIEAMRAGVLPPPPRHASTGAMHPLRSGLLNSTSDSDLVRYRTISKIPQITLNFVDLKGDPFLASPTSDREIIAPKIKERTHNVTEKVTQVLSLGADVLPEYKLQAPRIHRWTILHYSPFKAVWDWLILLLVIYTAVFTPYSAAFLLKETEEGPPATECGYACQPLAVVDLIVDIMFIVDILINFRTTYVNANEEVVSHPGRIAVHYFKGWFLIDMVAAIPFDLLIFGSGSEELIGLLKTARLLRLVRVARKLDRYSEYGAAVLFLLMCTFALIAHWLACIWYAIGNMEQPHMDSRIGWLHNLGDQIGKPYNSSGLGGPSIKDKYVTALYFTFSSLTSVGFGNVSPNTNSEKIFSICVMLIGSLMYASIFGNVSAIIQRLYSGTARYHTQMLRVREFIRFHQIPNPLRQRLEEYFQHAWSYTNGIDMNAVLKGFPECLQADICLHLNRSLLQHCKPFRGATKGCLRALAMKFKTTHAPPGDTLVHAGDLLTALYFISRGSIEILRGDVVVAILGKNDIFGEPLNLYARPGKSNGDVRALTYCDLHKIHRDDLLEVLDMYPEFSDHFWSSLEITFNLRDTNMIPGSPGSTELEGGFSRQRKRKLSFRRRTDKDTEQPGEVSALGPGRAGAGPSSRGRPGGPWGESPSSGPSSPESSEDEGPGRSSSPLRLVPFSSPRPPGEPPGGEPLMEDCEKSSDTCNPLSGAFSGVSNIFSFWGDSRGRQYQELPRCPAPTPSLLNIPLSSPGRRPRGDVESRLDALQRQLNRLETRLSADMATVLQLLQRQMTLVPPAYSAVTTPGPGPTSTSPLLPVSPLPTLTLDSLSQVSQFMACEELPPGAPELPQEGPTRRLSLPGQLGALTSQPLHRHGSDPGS
row,SMILES,"hERG current change (%, negative = inhibition) at 10uM [%]"
1,O=C1c2ccccc2C(=O)N1CCCn1nnc(-c2ccc(N3CCOCC3)cc2)n1,-4.13
2,COc1ccc2[nH]c3c(=O)n(Cc4ccc(C(=O)N5CCCCCC5)cc4)c(=S)[nH]c3c2c1,24.5
3,Cc1nn(Cc2ccccc2)c(=O)n1N(C)c1ncc(C(F)(F)F)cc1Cl,-7.74
4,Cc1cc(C)n(-c2cc(Oc3ccccc3)ncn2)n1,0.911
5,Cc1cc(C(=O)Nc2ccc3[nH]ccc3c2)no1,6.46
6,O=C1CN(C(=O)COC(=O)Cc2ccsc2)c2ccccc2N1,-4.05
7,Cn1cnnc1SCCOc1ccc(Cl)cc1,-5.37
8,Cc1cc2cc3c(C)cc(=O)oc3c(C)c2o1,19.8
9,CN(C)CCCNc1ncc(C(F)(F)F)cc1Cl,-7.97
10,CC(CCc1ccccc1)C(=O)NO (stereo not drawn),9.51
11,COc1ccc(-c2nc(CS(=O)CC(=O)NC3CCCCC3C)c(C)o2)cc1 (stereo not drawn),-7.26
12,CCS(=O)(=O)c1nc(S(=O)(=O)c2ccc(C)cc2)c(NCCCN2CCOCC2)s1,5.74
13,CS(=O)(=O)N(CC(=O)N1CCN(c2ccc(F)cc2)CC1)c1cccc(Cl)c1,-49.9
14,O=C(COC(=O)c1cccc(S(=O)(=O)Nc2ccc(F)cc2)c1)NCCN1C(=O)CSC1=O,-8.83
15,Cc1cccc(-n2c(SCC(=O)Nc3cccc(S(=O)(=O)NC4=NCCCCC4)c3)nc3ccccc3c2=O)c1C,-20.7
16,CCCNCC(O)Cn1c2ccccc2n2c(=O)cc(C)c(C#N)c12 (stereo not drawn),-29.7
17,COCCNC(=O)CSc1nc2ccc(N3CCOCC3)cc2c(=O)n1CCc1ccccc1,-55.1
18,COc1ccc(C)cc1-n1nnnc1SCC(=O)NC(=O)NCc1ccco1,9.86
19,CN(C)c1nc(/C=C(\C#N)C(N)=O)c(Cl)n1-c1ccc(F)cc1,5.02
20,O=C(Cc1ccc(-n2cccc2)cc1)NC1CCCCC1,-8.33
21,Cc1ccc(NC(=O)NNC(=O)c2sccc2-n2cccc2)cc1,26.6
22,Cc1ccc(Cl)cc1NC(=O)Nc1c(C)n(C)n(-c2ccccc2)c1=O,21.2
23,N#CCSc1nc2c(sc(=S)n2Cc2ccco2)c(=O)n1-c1ccc(F)cc1,-0.118
24,COc1ccc(-c2cc(C(=O)N(C)CC(=O)Nc3ccccc3Cl)c3ccccc3n2)cc1OC,-6.16
